# Hit rate of the full screen: of about 2,700 compounds, about 160 (5.9%) showed an effect of 50% or more. Some of the results follow.
# Target: Nonstructural protein 3 (Zika virus) (UniProt A0A024AXB9)
# [1] = PRVABC59, Concentration 15.0 uM, Number of replicates 1.0
# [2] = PRVABC59, Concentration 10.0 uM, Number of replicates 1.0
# [3] = PRVABC59, Concentration 50.0 uM, Number of replicates 1.0
# Sequence of UniProt A0A024AXB9 (A0A024AXB9 as listed by the source): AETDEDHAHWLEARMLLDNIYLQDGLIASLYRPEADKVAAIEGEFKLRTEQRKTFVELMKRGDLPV
smiles,measurement,setting,value
O=C(Nc1c(F)cc(F)cc1[N+](=O)[O-])c1cc(Cl)ccc1NS(=O)(=O)c1ccc(Oc2ccccc2Cl)cc1,inhibition,[1],25.4%
Cc1cc(CO)c2cccc(Cc3ccccc3C(=O)N3CCC(CN)CC3)c2n1,inhibition,"PRVABC59, Concentration 49.95 uM, Number of replicates 2.0, Standard deviation 5.668177927575499 %",56.2%
same,inhibition,"PRVABC59, Concentration 99.9 uM, Number of replicates 2.0, Standard deviation 1.410491152712613 %",37.7%
NCc1cccc(NC(=O)[C@@H](Cc2cccc(O)c2)NC(=O)OCc2ccccc2)c1,inhibition,"PRVABC59, Concentration 49.5 uM, Number of replicates 2.0, Standard deviation 0.7577896519997772 %",0.191%
same,inhibition,"PRVABC59, Concentration 99.01 uM, Number of replicates 2.0, Standard deviation 1.3701999456479566 %",3.77%
same,inhibition,"PRVABC59, Concentration 198.0 uM, Number of replicates 2.0, Standard deviation 0.9267930143647316 %",15.2%
COc1cc(Cc2ccc(S(=O)(=O)NCCO)cc2)nc(N2CCNCC2)n1,inhibition,"PRVABC59, Concentration 49.5 uM, Number of replicates 2.0, Standard deviation 0.7839568389991296 %",-2.58%
same,inhibition,"PRVABC59, Concentration 99.01 uM, Number of replicates 2.0, Standard deviation 1.7255130936071057 %",-0.643%
same,inhibition,"PRVABC59, Concentration 198.0 uM, Number of replicates 2.0, Standard deviation 0.6728289178800314 %",3.38%
N#Cc1ccc(Cl)c(NC(=O)c2cc(Cl)ccc2NS(=O)(=O)c2ccc(Oc3ccccc3Cl)cc2)c1,inhibition,[1],32.9%
O=Cc1ccc(N2CCC(C(=O)NCc3ccc(OC(F)(F)F)cc3)CC2)cc1,inhibition,[2],12.6%
O=C1NCCN(C(=O)c2cc(Cl)ccc2NS(=O)(=O)c2ccc(Oc3ccccc3Cl)cc2)[C@H]1c1ccccc1,inhibition,[1],-8.05%
O=C(c1c[nH]c2ccccc12)N1CCC(c2c[nH]c3cccnc23)CC1,inhibition,"PRVABC59, Concentration 49.5 uM, Number of replicates 2.0, Standard deviation 1.2524802574217546 %",1.92%
same,inhibition,"PRVABC59, Concentration 99.01 uM, Number of replicates 2.0, Standard deviation 1.5169790429854497 %",7.55%
same,inhibition,"PRVABC59, Concentration 198.0 uM, Number of replicates 2.0, Standard deviation 1.2965638379154212 %",15.2%
CN(Cc1ccccc1NC(=O)C1CCN(c2ccc(C=O)cc2)CC1)C1CCCCC1,inhibition,[3],22.9%
CCS(=O)(=O)c1ccccc1C(=O)Nc1ccncc1C,inhibition,"PRVABC59, Concentration 49.5 uM, Number of replicates 2.0, Standard deviation 0.06053560280989412 %",-1.25%
same,inhibition,"PRVABC59, Concentration 99.01 uM, Number of replicates 2.0, Standard deviation 0.855906735616441 %",-0.715%
same,inhibition,"PRVABC59, Concentration 198.0 uM, Number of replicates 2.0, Standard deviation 0.507826787651883 %",1.36%
O=Cc1ccc(N2CCC(C(=O)NCc3c(F)cc(F)c(F)c3F)CC2)cc1,inhibition,[2],22.5%
O=C(NCc1ccsc1Br)c1cc(Cl)ccc1NS(=O)(=O)c1ccc(Oc2ccccc2Cl)cc1,inhibition,[1],31.5%
O=C(Nc1ccc(I)cn1)c1cc(Cl)ccc1NS(=O)(=O)c1ccc(Oc2ccccc2Cl)cc1,inhibition,[1],23.3%
Cc1nc([C@H]2CCCNC2)[nH]c1C(=O)N1CCN([C@H](C)C(=O)NC2CCCC2)CC1,inhibition,"PRVABC59, Concentration 49.5 uM, Number of replicates 2.0, Standard deviation 0.07150541595291557 %",-1.61%
same,inhibition,"PRVABC59, Concentration 99.01 uM, Number of replicates 2.0, Standard deviation 1.2278500184736247 %",-1.24%
same,inhibition,"PRVABC59, Concentration 198.0 uM, Number of replicates 2.0, Standard deviation 2.2697859891871475 %",0.669%
O=Cc1ccc(N2CCC(C(=O)N3CCC(C(=O)NCCO)CC3)CC2)cc1,inhibition,[3],24.8%
O=C(c1cccn2ccnc12)N1CC[C@H](c2c[nH]c3ccccc23)C1,inhibition,"PRVABC59, Concentration 49.5 uM, Number of replicates 2.0, Standard deviation 4.127142833232607 %",3.2%
same,inhibition,"PRVABC59, Concentration 99.01 uM, Number of replicates 2.0, Standard deviation 3.445762804478474 %",5.35%
same,inhibition,"PRVABC59, Concentration 198.0 uM, Number of replicates 2.0, Standard deviation 0.6813803448554978 %",7.26%
O=C(Nc1cc(Cl)cc(Cl)c1O)c1cc(Cl)ccc1NS(=O)(=O)c1ccc(Oc2ccccc2Cl)cc1,inhibition,[1],74.3%
CNC(=O)[C@H]1CCN(S(=O)(=O)c2ccc(Oc3ccccc3Cl)cc2)C1,inhibition,"PRVABC59, Concentration 49.5 uM, Number of replicates 2.0, Standard deviation 2.3503648629811855 %",6.33%
same,inhibition,"PRVABC59, Concentration 99.01 uM, Number of replicates 2.0, Standard deviation 2.692773952478603 %",8.32%
same,inhibition,"PRVABC59, Concentration 198.0 uM, Number of replicates 2.0, Standard deviation 0.3043636351088153 %",5.71%
Cc1nc(Br)ccc1NC(=O)c1cc(Cl)ccc1NS(=O)(=O)c1ccc(Oc2ccccc2Cl)cc1,inhibition,[1],21.8%
Cc1ccc(CNC(=O)c2cc(Cl)ccc2NS(=O)(=O)c2ccc(Oc3ccccc3Cl)cc2)cc1Cl,inhibition,[1],23%
CC(C)(CO)NC(=O)c1cc(Cl)cc(NC(=O)c2c[nH]c(=O)o2)c1,inhibition,"PRVABC59, Concentration 49.5 uM, Number of replicates 2.0, Standard deviation 1.797395007357769 %",-3.13%
same,inhibition,"PRVABC59, Concentration 99.01 uM, Number of replicates 2.0, Standard deviation 0.09962469746132278 %",-1.84%
same,inhibition,"PRVABC59, Concentration 198.0 uM, Number of replicates 2.0, Standard deviation 1.305498169009609 %",1.83%
CCCc1nn(C)c(C(N)=O)c1Nc1cccc2c(CO)cc(C)nc12,inhibition,"PRVABC59, Concentration 49.95 uM, Number of replicates 2.0, Standard deviation 0.2471963241382148 %",-9.7%
same,inhibition,"PRVABC59, Concentration 99.9 uM, Number of replicates 2.0, Standard deviation 0.6961850154508284 %",-9.45%
O=C(Nc1nc2ccccc2[nH]1)[C@@]1(c2ccc(F)cc2)CCCNC1,inhibition,"PRVABC59, Concentration 49.5 uM, Number of replicates 2.0, Standard deviation 0.5142138475157695 %",-1.33%
same,inhibition,"PRVABC59, Concentration 99.01 uM, Number of replicates 2.0, Standard deviation 0.5894647011135223 %",-0.336%
same,inhibition,"PRVABC59, Concentration 198.0 uM, Number of replicates 2.0, Standard deviation 0.8632939823423394 %",2.05%
O=C(NC12C[C@@H]3C[C@@H](CC(O)(C3)C1)C2)c1cc(Cl)ccc1NS(=O)(=O)c1ccc(Oc2ccccc2Cl)cc1,inhibition,[1],24.8%
COc1cc(C(=O)NCc2cccnc2)nc(N2CCNCC2)n1,inhibition,"PRVABC59, Concentration 49.5 uM, Number of replicates 2.0, Standard deviation 0.6669275161515361 %",-2.53%
same,inhibition,"PRVABC59, Concentration 99.01 uM, Number of replicates 2.0, Standard deviation 1.9680723371784548 %",-1.69%
same,inhibition,"PRVABC59, Concentration 198.0 uM, Number of replicates 2.0, Standard deviation 1.9753413198474317 %",-2.37%
CC(C)Nc1nc2ccc(C(=O)Nc3cnn(C)c3)cc2[nH]1,inhibition,"PRVABC59, Concentration 49.5 uM, Number of replicates 2.0, Standard deviation 3.535335309982554 %",0.42%
same,inhibition,"PRVABC59, Concentration 99.01 uM, Number of replicates 2.0, Standard deviation 3.632711052924425 %",2.59%
same,inhibition,"PRVABC59, Concentration 198.0 uM, Number of replicates 2.0, Standard deviation 2.7285080736948673 %",10.8%
Cc1ccc(NC(=O)c2cc(Cl)ccc2NS(=O)(=O)c2ccc(Oc3ccccc3Cl)cc2)cc1I,inhibition,[1],40.6%
NCc1cccc(NC(=O)C2CCN(C(=O)OCc3ccccc3)CC2)c1,inhibition,"PRVABC59, Concentration 49.5 uM, Number of replicates 2.0, Standard deviation 1.063181986313622 %",0.16%
same,inhibition,"PRVABC59, Concentration 99.01 uM, Number of replicates 2.0, Standard deviation 0.3526652722014522 %",3.48%
same,inhibition,"PRVABC59, Concentration 198.0 uM, Number of replicates 2.0, Standard deviation 0.2048572859981111 %",11.4%
O=C(NCc1ccc(I)cc1)c1cc(Cl)ccc1NS(=O)(=O)c1ccc(Oc2ccccc2Cl)cc1,inhibition,[1],31.2%
Cc1cnccc1NC(=O)c1ccccc1-n1cccn1,inhibition,"PRVABC59, Concentration 49.5 uM, Number of replicates 2.0, Standard deviation 1.6031912013311809 %",-1.08%
same,inhibition,"PRVABC59, Concentration 99.01 uM, Number of replicates 2.0, Standard deviation 1.0324715376321894 %",-1.12%
same,inhibition,"PRVABC59, Concentration 198.0 uM, Number of replicates 2.0, Standard deviation 2.152117382941341 %",-1.88%
O=C(Nc1ncnc(Cl)c1Cl)c1cc(Cl)ccc1NS(=O)(=O)c1ccc(Oc2ccccc2Cl)cc1,inhibition,[1],21.6%
Cc1cc(CO)c2cccc(NC(=O)CNC3CC3)c2n1,inhibition,"PRVABC59, Concentration 49.95 uM, Number of replicates 2.0, Standard deviation 1.7513317050958486 %",17.8%
same,inhibition,"PRVABC59, Concentration 99.9 uM, Number of replicates 2.0, Standard deviation 1.7111876748261923 %",28.9%
Cc1cc(CO)c2cccc(NC(=O)[C@H]3CCNC3)c2n1,inhibition,"PRVABC59, Concentration 49.95 uM, Number of replicates 2.0, Standard deviation 1.562551081581127 %",-4.16%
same,inhibition,"PRVABC59, Concentration 99.9 uM, Number of replicates 2.0, Standard deviation 2.5850257028478962 %",4.64%
Nc1ccc(-c2ccc3c(c2)OB(O)CC3)cn1,inhibition,"PRVABC59, Concentration 49.5 uM, Number of replicates 2.0, Standard deviation 0.35544755425905034 %",1.29%
same,inhibition,"PRVABC59, Concentration 99.01 uM, Number of replicates 2.0, Standard deviation 1.2113279059483235 %",2.62%
same,inhibition,"PRVABC59, Concentration 198.0 uM, Number of replicates 2.0, Standard deviation 0.018707805942227557 %",3.08%
same,inhibition,"PRVABC59, Concentration 500.0 uM, Number of replicates 2.0, Standard deviation 2.4968029080205287 %",9.35%
O=C(c1cc(Cl)ccc1NS(=O)(=O)c1ccc(Oc2ccccc2Cl)cc1)N1CCOCC1,inhibition,[1],17.6%
Cc1nc(CNC(=O)c2[nH]c([C@H]3CCCNC3)nc2C)c[nH]1,inhibition,"PRVABC59, Concentration 49.5 uM, Number of replicates 2.0, Standard deviation 2.392781282735155 %",2.71%
same,inhibition,"PRVABC59, Concentration 99.01 uM, Number of replicates 2.0, Standard deviation 2.3433276879790186 %",5.99%
same,inhibition,"PRVABC59, Concentration 198.0 uM, Number of replicates 2.0, Standard deviation 2.4308218480893298 %",12.6%
O=C(Nc1cc(Cl)ccc1Br)c1cc(Cl)ccc1NS(=O)(=O)c1ccc(Oc2ccccc2Cl)cc1,inhibition,[1],24.1%
O=C(NCCc1cc(Cl)cc(Cl)c1)c1cc(Cl)ccc1NS(=O)(=O)c1ccc(Oc2ccccc2Cl)cc1,inhibition,[1],20.6%

# From ChEMBL document CHEMBL5606458, “ASAP - ZIKV NS2B-NS3 protease fluorescence single point” (2024)
